Measured values from EP0876399B1, “PEPTIDES AND USES THEREOF FOR THERAPY OF CELIAC DISEASES” (ISTITUTO SUPERIORE DI SANITA', priority 1996, dated 1997).
Part of at least one peptide drawing is inferred or uncertain, most often the ends. Where no end group is shown, it is not given here.

Test system: K562(S) cells
Assay: agglutination test with K562(S) cells: inhibition of / protection against induced agglutination
Format: cell-based
[1] = complete inhibition of agglutination induced by barley prolamin at six fold the MAC
[2] = complete inhibition of agglutination induced by oats prolamin at six fold the MAC
[3] = complete inhibition of agglutination induced by rye prolamin at six fold the MAC
[4] = minimal concentration of inhibitor to completely inhibit agglutination induced by fragment 31-43 from A-gliadin tested at 2.18 mM
[5] = minimal concentration of inhibitor to completely inhibit agglutination induced by fragment 44-55 from A-gliadin tested at 2.35 mM

Row | Substance | MIC [1] | MIC [2] | MIC [3] | MIC [4] | MIC [5]
1 | QQPQD [compound 6, QQPQD] | 1.35 10^-3 (mM) | 0.7 10^-3 (mM) | 1.35 10^-3 (mM) | 2.7 10^-3 (mM) | 1.4 10^-3 (mM)
2 | QQPQDAV [compound 4, QQPQDAV] | 1.1 10^-3 (mM) | 0.6 10^-3 (mM) | 1.1 10^-3 (mM) | 2.12 10^-3 (mM) | 2.12 10^-3 (mM)
3 | QQPQDAVQP [compound 2, QQPQDAVQP] | 0.8 10^-3 (mM) | 0.4 10^-3 (mM) | 0.8 10^-3 (mM) | 3.2 10^-3 (mM) | 1.6 10^-3 (mM)
4 | QQPQDAVQPF [peptide 1, QQPQDAVQPF] | 0.7 10^-3 (mM) | 0.35 10^-3 (mM) | 0.7 10^-3 (mM) | 2.8 10^-3 (mM) | 1.4 10^-3 (mM)
5 | QQPQDA [compound 5, QQPQDA] | 1.2 10^-3 (mM) | 0.6 10^-3 (mM) | 1.2 10^-3 (mM) | 2.43 10^-3 (mM) | 2.43 10^-3 (mM)
6 | QQPQDAVQ [compound 3, QQPQDAVQ] | 0.9 10^-3 (mM) | 0.5 10^-3 (mM) | 0.9 10^-3 (mM) | 3.6 10^-3 (mM) | 1.8 10^-3 (mM)
